The source of these data is ChEMBL document CHEMBL1157539, “Thousands of chemical starting points for antimalarial lead identification” (Nature, 2010).

In all, about 13,000 compounds were measured (“IFI”: median about 4, highest 2% from about 17 on). The list shows a part of the results.

This test in a line: GSK_TCMDC: Inhibition Frequency Index (IFI). The number of non-kinase HTS assays where a compound showed > 50 % inhibition, expressed as a percentage of the number of such assays in which the compound was tested (-0 is zero). Format: functional.
In the case of `Brc1ccc(Nc2nc3ccccc3nc2Nc2ccc(Br)cc2)cc1`, the IFI is 8.57%.

The compound `COc1cc2nc(N(C)C)nc(Nc3ccc(OCc4ccccc4)cc3)c2cc1OC` returned an IFI of 6.72%.

For the compound `CN(CCCCCNC(=O)/C=C/c1ccc(Cl)c(Cl)c1)CCCCc1c[nH]c2ccccc12`, the IFI turned out to be 6.11%.

Compound `COc1ccc2ncc(F)c(CCN3CCC(CNCc4cccc5c4OCO5)CC3)c2n1` gave an IFI of 6.67%.

Compound `O=C(Cn1c(CCc2cccc(F)c2F)nc(=O)c2ccccc21)N(Cc1ccc(-c2ccc(C(F)(F)F)cc2)cc1)C1CCN(C2CCSCC2)CC1` gave an IFI of 8.24%.

Take `Cc1cccc2nc(-c3ccc(-c4ccc(CNCCN5CCNCC5)cc4)s3)[nH]c12`: the IFI was 5%.

`COc1ccc(-c2cnc3[nH]cc(-c4ccc(C(=O)O)cc4)c3c2)cn1` had an IFI of 6.36%.

With `CCCSc1nc2c(c(=O)n1CCc1ccccc1)C1(CCCC1)Cc1ccccc1-2`, the IFI was -0%.

In turn, `CCc1cccc2c(C#N)cn(CC(=O)Nc3ccc(OC)cc3)c12` yielded an IFI of 0.98%.

`CC(=O)Nc1ccc(CN2CCC(NC(=O)c3ccc(-c4cccc(Cl)c4)s3)CC2)cc1`: the IFI was found to be 10.7%.

Compound `COc1ccc(-c2ccccc2CNc2nc(NCCc3ccc(O)cc3)nc(N3CCNCC3)n2)cc1` yielded an IFI of 13.4%.

`COc1cc(Cc2cnc(N)nc2N)cc(OCCCCC#N)c1OC` showed an IFI of 0.71%.

The compound `COc1cc(NC(=O)c2ccc(-c3ccccc3)cc2)ccc1OCCCN1CCC(c2ccccc2)CC1` displayed an IFI of 2.21%.

Take `O=C(Nc1cccc(N2CCC(NCc3cnn(-c4cccc(F)c4)c3)CC2)c1)c1ccncc1`: the IFI is -0%.

On to `FC(F)(F)c1cccc(CNCCCCCNCc2ccc(Cl)cc2)c1`, for which the IFI is 1.42%.

Regarding `COc1cc(Cc2cnc(N)nc2N)ccc1OCC(=O)Nc1ccc(C)cc1`, the IFI is 1.83%.

In turn, `O=C(Nc1ccsc1)Nc1cccc(-c2cccc(-c3nc4cc(F)ccc4[nH]3)c2)c1` had an IFI of 4.04%.

Compound `CN1CCN(Cc2cc3cc(NC(=O)/C=C/c4cccc(Cl)c4)ccc3s2)CC1` showed an IFI of 11.2%.

The compound `COC(=O)c1cccc(CNCc2cccc(-c3cccc(-c4nc5cccc(C)c5[nH]4)c3)c2)c1` displayed an IFI of 4.9%.

With `Cc1c(C)n(C2CCCC2)c2ncnc(OC3CCN(CC(=O)NCC4CC4)CC3)c12`, the IFI was 8.7%.

`COc1ccc(-c2cc(-c3nc4cc(C(=O)N5CCOCC5)ccc4[nH]3)c(=O)n(C)c2)cc1OC` gave an IFI of -0%.

The compound `CCOC(=O)c1ccc(NC(=O)Nc2cccc(-c3cccc(-c4nc5cc(F)ccc5[nH]4)c3)c2)cc1` registered an IFI of 10.9%.

For the compound `O=C(N[C@@H](CC1CCCCC1)C(=O)NCCN1CCCC1)c1ccc(O)c(-c2ccc(Cl)c(Cl)c2)c1`, the IFI is 4.29%.

In the case of `Cc1ccc(CCOCCCCCNCC(O)c2cc(Cl)c(N)c(Cl)c2)cc1` (stereo not drawn), the IFI came to 1.48%.

For the compound `FC(F)(F)CNc1nc(Nc2ccc3ncccc3c2)nc2[nH]ccc12`, the IFI is -0%.

As to `COc1cc(NC(=O)/C=C/c2ccccc2OC(F)(F)F)cc(OCCN2CCCCC2)c1`, the IFI stood at 3.65%.

The compound `O=C(Nc1ccc(-c2nc3ccccc3[nH]2)cc1)c1cccc(S(=O)(=O)N2CCCC2)c1` yielded an IFI of 2.86%.

As to `CCOc1ccc2nc(NC(=O)c3csnn3)sc2c1`, the IFI came to 1.56%.

Compound `O=C(Nc1cccc(CN2CCCN(Cc3cccc(O)c3)CC2)c1)c1ccc(Cl)c(Cl)c1` came in with an IFI of 5.37%.

`CN(Cc1cccc(C#N)c1)C1CCN(c2cc(NC(=O)c3ccc(F)cc3)ccn2)CC1` gave an IFI of -0%.

In turn, `Cc1ccc(F)c(NC(=O)c2c(-c3c(F)cccc3Cl)noc2C)c1` gave an IFI of 2.04%.

As to `Cn1cncc1C(=O)Nc1cccc(-c2cccc(-c3nc4cc(C(F)(F)F)ccc4[nH]3)c2)c1`, the IFI worked out at 3.6%.

Take `O=C(/C=C/c1ccc(Cl)c(Cl)c1)NCCCCCCN1CCN(C(=O)Nc2ccc(Cl)c(Cl)c2)CC1`: the IFI amounted to 5.65%.

In the case of `O=C(CCCCCNC(=O)c1ccc(O)c(-c2ccc(Cl)c(Cl)c2)c1)NC1CCCc2ccccc21` (stereo not drawn), the IFI amounted to 0.74%.

`CCS(=O)(=O)c1ccc(/C(=N/OC)c2ccc[nH]2)cc1` displayed an IFI of 0%.

`Fc1ccc(-c2oc(C3CCN(CCc4ccc(-c5noc(=S)[nH]5)cc4)CC3)nc2COCC(F)(F)F)cc1` had an IFI of 2.86%.

Compound `Cc1ccc(C(=O)Nc2ccc(Cl)c(N3CCN(CCc4ccccc4)CC3)c2)cc1` returned an IFI of 2.44%.

`Cc1cc(CNCCCCCNCc2cccc([N+](=O)[O-])c2)ccc1O` displayed an IFI of 0%.

Consider `Cc1cccc2nc(-c3cccc(-c4cccc(NC(=O)CNC(=O)c5ccc(O)cc5)c4)c3)[nH]c12`, for which the IFI worked out at 4.5%.

For the compound `CCCOc1ccccc1-c1nc2[nH]c3c(c2c(=O)[nH]1)CCN(C)C3`, the IFI was determined as 1.77%.

`C=CCc1cccc(OC)c1OCCCON1C(=N)N=C(N)NC1(C)C` displayed an IFI of 4.48%.

On to `O=C(Nc1ccc(-c2ccccc2)c(OCCN2CCNCC2)c1)c1ccc(-c2ccc(Cl)cc2)cc1`, for which the IFI worked out at 9.09%.

Compound `COc1ccc(-c2cnc3ccc(NCc4ccc(S(N)(=O)=O)cc4)nn23)cn1` came in with an IFI of 0.76%.

For `O=C(NC1CCN(CC2(c3ccc(Cl)cc3)CCCCC2)CC1)c1cc[nH]n1`, the IFI turned out to be 7.14%.

In turn, `CSc1ccc(NC(=O)Nc2cc(C)nc3ccccc23)cc1` showed an IFI of 10.1%.

`CCN(CC)CCCCNc1cc(-c2[nH]c(-c3c(Cl)cccc3Cl)nc2-c2ccc3cc(OC)ccc3c2)ccn1` yielded an IFI of 7.8%.

The compound `CCN(CC)CCn1c(=N)n(CC(=O)c2ccc(-c3ccccc3)cc2)c2ccccc21` yielded an IFI of 7.19%.

Regarding `CN(c1ccc2c(c1)nc(NCc1ccc(F)cc1)n2C)c1ccnc(Nc2ccc(CS(C)(=O)=O)cc2)n1`, the IFI was 9.29%.

With `CN(C(=O)C(C)(C)Oc1ccc(Cl)cc1)C1CCN(CCCCCNC(=O)/C=C/c2ccc(Cl)c(Cl)c2)CC1`, the IFI was 16%.

On to `COc1ccc(-c2nonc2NC(=O)c2cccc(C)c2)cc1OC`, for which the IFI came out at 2.06%.

The compound `O=c1cc(NCCCNCc2cc(Br)cs2)[nH]c2ccccc12` returned an IFI of -0%.

`CS(=O)(=O)c1cccc(-c2cnc3[nH]cc(-c4ccc(C(=O)O)cc4)c3c2)c1`: the IFI was determined as 2.97%.

`CN1CCN(c2ccnc3cc4ccccc4cc23)CC1`: the IFI was -0%.

In turn, `CCOC(=O)c1[nH]c2cc(Cl)cc(Cl)c2c1/C=C/C(=O)Nc1ccc(-c2cnc(NC(C)=O)[nH]2)cc1` displayed an IFI of 2.4%.

`CN(CCCN(C)c1cc(NC(=O)c2ccc(F)cc2)ccn1)Cc1cccc(O)c1` came in with an IFI of 5.26%.

In turn, `Cc1cccc2nc(-c3cccc(-c4ccc(C(=O)N5CCCCC5C(C)O)cc4)c3)[nH]c12` (stereo not drawn) displayed an IFI of 6.54%.

Regarding `CS(=O)(=O)N1CC2(CCN(CCC(NC(=O)NCc3ccccc3Cl)c3ccc(Cl)c(Cl)c3)CC2)c2ccccc21` (stereo not drawn), the IFI worked out at 7.53%.

Take `COc1ccc(CN(C)CCCc2ccc(NC(=O)c3cccc4c(O)c5ccccc5nc34)cc2)cc1OC`: the IFI is 3.13%.
